# Results as given in the supplement of paper PMC8728848.
# This is one part of the list.
# B1: Gal 8 (Mus musculus), Q9JL15 (protein)
# chain: MGGSHHHHHHGMASMLSLNNLQNIIYNPIIPYVGTITEQLKPGSLIVIRGHVPKDSERFQVDFQLGNSLKPRADVAFHFNPRFKRSSCIVCNTLTQEKWGWEEITYDMPFRKEKSFEIVFMVLKNKFQVAVNGRHVLLYAHRISPEQIDTVGIYGKVNIHSIGFRFSSASALPHTLGDLQSMETSALGLTQINRENIQKPGKLQLSLPFEARLNASMGPGRTVVIKGEVNTNARSFNVDLVAGKTRDIALHLNPRLNVKAFVRNSFLQDAWGEEERNITCFPFSSGMYFEMIIYCDVREFKVAINGVHSLEYKHRFKDLSSIDTLSVDGDIRLLDVRSW
# Key:
# Assay in all cases: glycan array binding signal (z-score within array); higher = stronger binding
# Settings in all cases: glycan notation: IUPAC condensed, linker removed
# [1] = biological target: Fuc(a1-2)[Gal(a1-3)]Gal(b1-4)GlcNAc(b1-2)Man(a1-3)[Fuc(a1-2)[Gal(a1-3)]Gal(b1-4)GlcNAc(b1-2)Man(a1-6)]Man(b1-4)GlcNAc(b1-4)GlcNAc
# Outline: (§1)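 Glycan array data were curated from 3228 arrays in the Consortium for Functional Glycomics database and kept only where the protein sequence was available. Glycan names were converted to IUPAC-condensed notation, and columns mapping to the same glycan were averaged. The binding signal is a within-array Z-score, averaged across arrays of the same protein sequence at different concentrations or buffers and across linkers. Negative Z-scores can be read as non-binding.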
# [2] = biological target: Fuc(a1-2)[Gal(a1-3)]Gal(b1-4)GlcNAc(b1-2)Man(a1-3)[Fuc(a1-2)[Gal(a1-3)]Gal(b1-4)GlcNAc(b1-2)Man(a1-6)]Man(b1-4)GlcNAc(b1-4)[Fuc(a1-6)]GlcNAc
# Outline: as §1
# [3] = biological target: Fuc(a1-2)[Gal(a1-3)]Gal(b1-4)GlcNAc(b1-3)GalNAc
# Outline: as §1
# [4] = biological target: Fuc(a1-2)[Gal(a1-3)]Gal(b1-4)GlcNAc(b1-3)[Fuc(a1-2)[Gal(a1-3)]Gal(b1-4)GlcNAc(b1-6)]GalNAc
# Outline: as §1
# [5] = biological target: Fuc(a1-2)[Gal(a1-3)]Gal(b1-4)GlcNAc(b1-6)GalNAc
# Outline: as §1
# [6] = biological target: Fuc(a1-2)[Gal(a1-3)]Gal(b1-4)[Fuc(a1-3)]Glc
# Outline: as §1
# [7] = biological target: Fuc(a1-2)[Gal(a1-3)]Gal(b1-4)[Fuc(a1-3)]GlcNAc
# Outline: as §1
# [8] = biological target: Fuc(a1-2)[Gal(a1-3)]Gal(b1-4)[Fuc(a1-3)]GlcNAc(b1-3)GalNAc
# Outline: as §1
# [9] = biological target: Fuc(a1-2)[Gal(a1-4)]Gal(b1-4)GlcNAc
# Outline: as §1
# [10] = biological target: Fuc(a1-2)[GalNAc(a1-3)]Gal
# Outline: as §1
# [11] = biological target: Fuc(a1-2)[GalNAc(a1-3)]Gal(b1-3)GalNAc(a1-3)[Fuc(a1-2)]Gal(b1-4)GlcNAc
# Outline: as §1
# [12] = biological target: Fuc(a1-2)[GalNAc(a1-3)]Gal(b1-3)GalNAc(b1-3)Gal(a1-4)Gal(b1-4)Glc
# Outline: as §1
# [13] = biological target: Fuc(a1-2)[GalNAc(a1-3)]Gal(b1-3)GlcNAc
# Outline: as §1
# [14] = biological target: Fuc(a1-2)[GalNAc(a1-3)]Gal(b1-3)GlcNAc(b1-2)Man(a1-3)[Fuc(a1-2)[GalNAc(a1-3)]Gal(b1-3)GlcNAc(b1-2)Man(a1-6)]Man(b1-4)GlcNAc(b1-4)GlcNAc
# Outline: as §1
# [15] = biological target: Fuc(a1-2)[GalNAc(a1-3)]Gal(b1-3)GlcNAc(b1-2)Man(a1-3)[Fuc(a1-2)[GalNAc(a1-3)]Gal(b1-3)GlcNAc(b1-2)Man(a1-6)]Man(b1-4)GlcNAc(b1-4)[Fuc(a1-6)]GlcNAc
# Outline: as §1
# [16] = biological target: Fuc(a1-2)[GalNAc(a1-3)]Gal(b1-3)GlcNAc(b1-3)GalNAc
# Outline: as §1
# [17] = biological target: Fuc(a1-2)[GalNAc(a1-3)]Gal(b1-3)GlcNAc(b1-6)GalNAc
# Outline: as §1
# [18] = biological target: Fuc(a1-2)[GalNAc(a1-3)]Gal(b1-4)Glc
# Outline: as §1
# [19] = biological target: Fuc(a1-2)[GalNAc(a1-3)]Gal(b1-4)GlcNAc
# Outline: as §1
# [20] = biological target: Fuc(a1-2)[GalNAc(a1-3)]Gal(b1-4)GlcNAc(b1-2)Man
# Outline: as §1
# [21] = biological target: Fuc(a1-2)[GalNAc(a1-3)]Gal(b1-4)GlcNAc(b1-2)Man(a1-3)[Fuc(a1-2)[GalNAc(a1-3)]Gal(b1-4)GlcNAc(b1-2)Man(a1-6)]Man(b1-4)GlcNAc(b1-4)GlcNAc
# Outline: as §1
# [22] = biological target: Fuc(a1-2)[GalNAc(a1-3)]Gal(b1-4)GlcNAc(b1-2)Man(a1-3)[Fuc(a1-2)[GalNAc(a1-3)]Gal(b1-4)GlcNAc(b1-2)Man(a1-6)]Man(b1-4)GlcNAc(b1-4)[Fuc(a1-6)]GlcNAc
# Outline: as §1
# [23] = biological target: Fuc(a1-2)[GalNAc(a1-3)]Gal(b1-4)GlcNAc(b1-3)Gal(b1-4)GlcNAc
# Outline: as §1
# [24] = biological target: Fuc(a1-2)[GalNAc(a1-3)]Gal(b1-4)GlcNAc(b1-3)Gal(b1-4)GlcNAc(b1-3)Gal(b1-4)GlcNAc
# Outline: as §1
# [25] = biological target: Fuc(a1-2)[GalNAc(a1-3)]Gal(b1-4)GlcNAc(b1-3)GalNAc
# Outline: as §1
# [26] = biological target: Fuc(a1-2)[GalNAc(a1-3)]Gal(b1-4)GlcNAc(b1-3)[Fuc(a1-2)[GalNAc(a1-3)]Gal(b1-4)GlcNAc(b1-6)]GalNAc
# Outline: as §1
# [27] = biological target: Fuc(a1-2)[GalNAc(a1-3)]Gal(b1-4)GlcNAc(b1-6)GalNAc
# Outline: as §1
# [28] = biological target: Fuc(a1-2)[GalNAc(a1-3)]Gal(b1-4)[Fuc(a1-3)]GlcNAc
# Outline: as §1
# [29] = biological target: Fuc(a1-2)[GalNAc(a1-3)]Gal(b1-4)[Fuc(a1-3)]GlcNAc(b1-3)GalNAc
# Outline: as §1
# [30] = biological target: Fuc(a1-2)[GalNAc(a1-4)]Gal(b1-4)GlcNAc
# Outline: as §1
# [31] = biological target: Fuc(a1-2)[GalNAc(b1-3)]Gal
# Outline: as §1
# Fuc(a1-3)GlcNAc = biological target: Fuc(a1-3)GlcNAc
# Outline: as §1
# [32] = biological target: Fuc(a1-3)[Gal(b1-4)]Glc6S
# Outline: as §1
# [33] = biological target: Fuc(a1-3)[Gal(b1-4)]GlcNAc
# Outline: as §1
# [34] = biological target: Fuc(a1-3)[Gal(b1-4)]GlcNAc(b1-2)Man
# Outline: as §1
# [35] = biological target: Fuc(a1-3)[Gal(b1-4)]GlcNAc(b1-2)Man(a1-3)[Fuc(a1-3)[Gal(b1-4)]GlcNAc(b1-2)Man(a1-6)]Man(b1-4)GlcNAc(b1-4)GlcNAc
# Outline: as §1
# [36] = biological target: Fuc(a1-3)[Gal(b1-4)]GlcNAc(b1-2)Man(a1-3)[Fuc(a1-3)[Gal(b1-4)]GlcNAc(b1-2)Man(a1-6)]Man(b1-4)GlcNAc(b1-4)[Fuc(a1-6)]GlcNAc
# Outline: as §1
# [37] = biological target: Fuc(a1-3)[Gal(b1-4)]GlcNAc(b1-3)Gal(b1-3)[Fuc(a1-4)]GlcNAc
# Outline: as §1
# [38] = biological target: Fuc(a1-3)[Gal(b1-4)]GlcNAc(b1-3)Gal(b1-4)[Fuc(a1-3)]GlcNAc
# Outline: as §1
# [39] = biological target: Fuc(a1-3)[Gal(b1-4)]GlcNAc(b1-3)Gal(b1-4)[Fuc(a1-3)]GlcNAc(b1-3)Gal(b1-4)[Fuc(a1-3)]GlcNAc
# Outline: as §1
# [40] = biological target: Fuc(a1-3)[Gal(b1-4)]GlcNAc(b1-3)GalNAc
# Outline: as §1
# [41] = biological target: Fuc(a1-3)[Gal(b1-4)]GlcNAc(b1-6)GalNAc
# Outline: as §1
# [42] = biological target: Fuc(a1-3)[Gal(b1-4)]GlcNAc(b1-6)[Gal(b1-3)GlcNAc(b1-3)]Gal(b1-4)Glc
# Outline: as §1
# [43] = biological target: Fuc(a1-3)[Gal(b1-4)]GlcNAc6S
# Outline: as §1
# [44] = biological target: Fuc(a1-3)[Gal3S(b1-4)]Glc
# Outline: as §1
binder,measurement,setting,value
B1,glycan array binding signal (z-score),[1],2.75
same,glycan array binding signal (z-score),[2],3.64
same,glycan array binding signal (z-score),[3],2.57
same,glycan array binding signal (z-score),[4],2.19
same,glycan array binding signal (z-score),[5],-0.535
same,glycan array binding signal (z-score),[6],-0.504
same,glycan array binding signal (z-score),[7],-0.529
same,glycan array binding signal (z-score),[8],-0.512
same,glycan array binding signal (z-score),[9],-0.535
same,glycan array binding signal (z-score),[10],-0.528
same,glycan array binding signal (z-score),[11],1.71
same,glycan array binding signal (z-score),[12],-0.013
same,glycan array binding signal (z-score),[13],1
same,glycan array binding signal (z-score),[14],2
same,glycan array binding signal (z-score),[15],0.654
same,glycan array binding signal (z-score),[16],0.248
same,glycan array binding signal (z-score),[17],2.02
same,glycan array binding signal (z-score),[18],1.61
same,glycan array binding signal (z-score),[19],2.06
same,glycan array binding signal (z-score),[20],3.48
same,glycan array binding signal (z-score),[21],2.27
same,glycan array binding signal (z-score),[22],0.958
same,glycan array binding signal (z-score),[23],2.19
same,glycan array binding signal (z-score),[24],2.25
same,glycan array binding signal (z-score),[25],1.31
same,glycan array binding signal (z-score),[26],1.87
same,glycan array binding signal (z-score),[27],1.3
same,glycan array binding signal (z-score),[28],-0.526
same,glycan array binding signal (z-score),[29],-0.477
same,glycan array binding signal (z-score),[30],-0.537
same,glycan array binding signal (z-score),[31],-0.136
same,glycan array binding signal (z-score),Fuc(a1-3)GlcNAc,-0.543
same,glycan array binding signal (z-score),[32],-0.472
same,glycan array binding signal (z-score),[33],-0.539
same,glycan array binding signal (z-score),[34],-0.54
same,glycan array binding signal (z-score),[35],-0.511
same,glycan array binding signal (z-score),[36],-0.537
same,glycan array binding signal (z-score),[37],-0.537
same,glycan array binding signal (z-score),[38],-0.528
same,glycan array binding signal (z-score),[39],-0.537
same,glycan array binding signal (z-score),[40],-0.533
same,glycan array binding signal (z-score),[41],-0.529
same,glycan array binding signal (z-score),[42],0.008
same,glycan array binding signal (z-score),[43],-0.533
same,glycan array binding signal (z-score),[44],-0.523
